# Data: patent US9944700B2, “Notch2 binding molecules for treating respiratory diseases” (NOVARTIS AG, priority 2013, dated 2018)
# B1: D3: anti-Notch2 antagonist IgG1 antibody, heavy chain SEQ ID NO: 3 (N-terminal glutamine), light chain SEQ ID NO: 4; sole antibody in therapeutic models (antibody)
# heavy: QVQLVESGGGLVQPGGSLRLSCAAGYTFSSYGMSWVRQAPGKGLEWVSYIYPYSGATYYADSVKGRFTISADTSKNTAYLQMNSLRAEDTAVYYCARHSGYYRISSAMDVWGQGTLVTVSSASTKGPSVFPLAPSSKSTSGGTAALGCLVKDYFPEPVTVSWNSGALTSGVHTFPAVLQSSGLYSLSSVVTVPSSSLGTQTYICNVNHKPSNTKVDKRV[not shown - human IgG1 Fc]
# light: DIQMTQSPSSLSASVGDRVTITCRASQNIKRFLAWYQQKPGKAPKLLIYGASTRESGVPSRFSGSGSGTDFTLTISSLQPEDFATYYCQQYYRSPHTFGQGTKVEIKRTVAAPSVFIFPPSDEQLKSGTASVVCLLNNFYPREAKVQWKVDNALQSGNSQESVTEQDSKDSTYSLSSTLTLSKADYEKHKVYACEVTHQGLSSPVTKSFNRGEC
# modifications: Synthetic human sequence
# Experiments:
# Assay type in all cases: cell-based
# [1] = tested on: Human bronchial epithelial (HBE) cells; assay: IL-13-driven goblet cell metaplasia in ALI cultures; conditions: ALI cultures (results not shown)
# Protocol: Human bronchial epithelial (HBE) cells and culture media were obtained from Lonza. Air-liquid interface cultures using passage 2 (P2) cells were performed as previously described (Danahay, H. et al., American journal of physiology. Lung cellular and molecular physiology 282, L226-236 (2002)). For three-dimensional culturing of HBE cells, P1 cells were trypsinized and resuspended (30,000 cells/ml) in HBE differentiation media containing 5% growth factor-reduced Matrigel (BD Biosciences). 20 μl of suspension was plated in each well of a 384-well plate (Greiner) pre-coated with 10 μl of a 25% solution of Matrigel (BD Biosciences) in HBE differentiation media. […] Three-dimensional cultures were analyzed at the time points indicated.
# Immunofluorescence of HBEC bronchospheres was performed as described previously for MCF10A cysts (Debnath, J. et al., Methods 30, 256-268 (2003) with the following modifications. After incubation with fluorescence-conjugated secondary antibodies, DNA was stained with a 1:1 mix of PBS and ProLong gold antifade containing DAPI. Confocal microscopy was performed at room temperature on a microscope (Zeiss LSM510 Meta) using an EC Plan-Neofluar 10×/0.30 dry objective (Zeiss), an EC Plan-Neofluor 20×/0.5 dry objective (Zeiss), a C-Apochromat 40×/1.2 W corr (Zeiss), or a C-Apochromat 63×/1.2 W Corr objective (Zeiss). […]
# [2] = tested on: Human airway basal cells grown in 3D; assay: IL-13-driven goblet cell metaplasia in 3D bronchospheres, qPCR of cell type markers
# Protocol: (§1) Human bronchial epithelial (HBE) cells and culture media were obtained from Lonza. Air-liquid interface cultures using passage 2 (P2) cells were performed as previously described (Danahay, H. et al., American journal of physiology. Lung cellular and molecular physiology 282, L226-236 (2002)). For three-dimensional culturing of HBE cells, P1 cells were trypsinized and resuspended (30,000 cells/ml) in HBE differentiation media containing 5% growth factor-reduced Matrigel (BD Biosciences). 20 μl of suspension was plated in each well of a 384-well plate (Greiner) pre-coated with 10 μl of a 25% solution of Matrigel (BD Biosciences) in HBE differentiation media. Wells were fed or treated at day 2 and day 8 of culture by adding 30 μl of differentiation media containing the appropriate treatment. Three-dimensional cultures were analyzed at the time points indicated.
# RNA was isolated from 3D bronchosphere cultures with Trizol (Invitrogen), using manufacturer's specifications. […] Quantitative PCR was performed on a ViiA7 Real-Time PCR System (Applied Biosystems), using 40 ng of cDNA per reaction with the following Taqman probes (Applied Biosystems): MUC5AC, Hs01365601_m1; MUC5B, Hs00861588_m1; FOXA3, Hs00270130_m1; FOXJ1, Hs00230964_m1; DNAI2, Hs01001544_m1; TP63, Hs00978340_m1; ITGA6, Hs01041011_m1; GAPDH, Hs99999905_m1; Muc5ac, Mm012718_m1; Foxj1, Mm012367279_m1; Trp63, Mm00495788_m1; Gapdh, Mm99999915_g1.
# In order to understand if neutralizing Notch2 could prevent goblet cell metaplasia, a hallmark of several airway diseases including asthma, cystic fibrosis, and COPD, anti-Notch2 antibodies were tested for their effect on IL-13-driven goblet cell metaplasia in 3D bronchospheres. Human airway basal cells were grown in 3D in the presence of vehicle control or IgG, with or without 1 ng/ml IL-13, or increasing concentrations of α-N2 D3 or 59R5 antibodies together with 1 ng/ml of IL-13, and analyzed by qPCR for the expression levels of the indicated goblet cell markers (FIG. 5a), ciliated cell markers (FIG. 5b), and basal cell markers (FIG. 5c).
# [3] = tested on: Human airway basal cells grown in 3D; assay: 3D bronchosphere cultures treated with Notch receptor-specific blocking antibodies, qPCR of cell type markers
# Protocol: as §1
# RNA was isolated from 3D bronchosphere cultures with Trizol (Invitrogen), using manufacturer's specifications. To isolate RNA from mouse tissue, approximately 20 mg of tissue was placed in a 1.5 ml eppendorf tube with 1 ml of Buffer RLT Plus (Qiagen). A 5 mm stainless steel bead (Qiagen) was added to the tube, and the tissue was sheared using a Tissue Lyser II (Qiagen). RNA from the sheared tissue was purified using the RNeasy Plus Mini Kit (Qiagen), using manufacturer's specifications. TaqMan Reverse Trascription Reagents (Invitrogen) were used to generate cDNA from 1 μg of total RNA. Quantitative PCR was performed on a ViiA7 Real-Time PCR System (Applied Biosystems), using 40 ng of cDNA per reaction with the following Taqman probes (Applied Biosystems): MUC5AC, Hs01365601_m1; MUC5B, Hs00861588_m1; FOXA3, Hs00270130_m1; FOXJ1, Hs00230964_m1; DNAI2, Hs01001544_m1; TP63, Hs00978340_m1; ITGA6, Hs01041011_m1; GAPDH, Hs99999905_m1; Muc5ac, Mm012718_m1; Foxj1, Mm012367279_m1; Trp63, Mm00495788_m1; Gapdh, Mm99999915_g1. […]
molecule,measurement,setting,value
B1,IL-13-driven goblet cell metaplasia,[1],completely inhibited
same,"IL-13-driven goblet cell metaplasia (expression of goblet cell markers MUC5AC, MUC5B and FOX3A)","[2]; 1 ng/ml IL-13, increasing antibody concentrations, qPCR, FIG. 5a",completely inhibited
same,ciliated cells function (expression of ciliated cell markers FOXJ1 and DNAI2),"[2]; 1 ng/ml IL-13, qPCR, FIG. 5b",partially restored
same,effect on basal cells markers p63 and ITGA6,"[2]; 1 ng/ml IL-13, qPCR, FIG. 5c",No effect
same,effect on basal cell markers p63 and ITGA6,[3]; FIG. 4c,Neither antibody showed any significant effect
same,"goblet cell formation: expression of goblet cell markers MUC5AC, MUC5B and FOXA3","[3]; compared with IgG control or anti-Notch1 / anti-Notch3 antibodies, FIG. 4a",decreased
same,ciliated cell formation: expression of ciliated cells markers FOXJ1 and DNAI2,"[3]; compared with IgG control or anti-Notch1 / anti-Notch3 antibodies, FIG. 4b",increasing
